According to PMC7819943, “Rice protein-binding microarrays: a tool to detect cis-acting elements near promoter regions in rice”:
Some of the results follow.

The sequences below were run against T1, OsWOX13 (Oryza sativa, UniProt Q5QMM3 1-267) (assay: protein-binding microarray (RPBM); PBS, 2% BSA, 51.3 ng/ul salmon testes DNA, 50 uM zinc acetate, 200 nM TF, 25 C, 1 h; high values mean tight binding). Conditions: protein: recombinant; tags: N-terminal polyhistidine and DsRed monomer fusion (pET32a); label: CyDye5-dUTP incorporated in the synthesized complementary strand; 3' TTTTT single-stranded linker to array surface; dsDNA, one strand shown.
T1 sequence: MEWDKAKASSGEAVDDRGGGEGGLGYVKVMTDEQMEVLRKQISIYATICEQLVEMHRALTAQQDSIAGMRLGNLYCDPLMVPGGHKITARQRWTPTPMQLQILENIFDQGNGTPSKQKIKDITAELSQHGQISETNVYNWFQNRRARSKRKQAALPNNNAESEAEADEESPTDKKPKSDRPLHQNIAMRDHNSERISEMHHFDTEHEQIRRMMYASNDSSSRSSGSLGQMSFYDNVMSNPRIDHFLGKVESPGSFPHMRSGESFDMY
In short: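 Binding signal here means per-feature fluorescence intensity in arbitrary units. The values were read on an Axon 4000B scanner after a custom Agilent array, double-stranded by primer extension with Cy5-dUTP, was incubated with 200 nM protein at 25 °C for 1 h in PBS with 2% BSA, salmon testes DNA and 50 µM zinc acetate, then washed. The proteins were transcription factors with an N-terminal polyhistidine tag and DsRed, expressed in E. coli BL21-CodonPlus and purified on Ni–NTA.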

Sequence	binding signal
TCATAATGCTGTTCTAAATAGATTTGTTATATCCATCACACGGAGTCACCTAGTGCAG	4570 fluorescence intensity (a.u.)
CAAATCAGGCGCAATTAGACTTAAAAGATTCGTCTCGTAACGGAGTCACCTAGTGCAG	6690 fluorescence intensity (a.u.)
AGCACAAATCAAGCAAACCAATCTCTTCCCGTCTTTCTCGCGGAGTCACCTAGTGCAG	3980 fluorescence intensity (a.u.)
GTTGATTCATAATCTCTATTGATATCGAATCATTTATTCACGGAGTCACCTAGTGCAG	4490 fluorescence intensity (a.u.)
CCACCTGTGATTGAAAACAATTACTTTTGAACATGCGCAGCGGAGTCACCTAGTGCAG	55200 fluorescence intensity (a.u.)
TATATATATATATATATATATATATATATATATACAGAAACGGAGTCACCTAGTGCAG	13200 fluorescence intensity (a.u.)
GCCAATAATTTTCCAACTCATGTACTTAAGCTGAAAGTTGCGGAGTCACCTAGTGCAG	3590 fluorescence intensity (a.u.)
TCTTTTGATTATGTGGCCAACTATATATTAATAACTTTGGCGGAGTCACCTAGTGCAG	15300 fluorescence intensity (a.u.)
TCTGATGAGGAACACATCTCACTTGGGCTCCACGTTCTTCCGGAGTCACCTAGTGCAG	5780 fluorescence intensity (a.u.)
GAACCGTACCACTACTGATTGATATCGACGTGTTTCACCGCGGAGTCACCTAGTGCAG	20100 fluorescence intensity (a.u.)
CATTGATGTTTTAAATATGACAGGATCCTCCAAGGGAAGACGGAGTCACCTAGTGCAG	3930 fluorescence intensity (a.u.)
CGATGACTAATTTGGTAGTAAGCATACATGCATGGGCCAACGGAGTCACCTAGTGCAG	12700 fluorescence intensity (a.u.)
GCAAGTTACAGTTTGATTACTATGTCACCTATACACATATCGGAGTCACCTAGTGCAG	5960 fluorescence intensity (a.u.)
GGATTAATTAGGCTCAATAGATTCGTCTTGCGAATTAGTTCGGAGTCACCTAGTGCAG	13600 fluorescence intensity (a.u.)
TGCTAATTAACATACTACTAAAATCATTAGCAGTAAAACGCGGAGTCACCTAGTGCAG	23000 fluorescence intensity (a.u.)
AGCAAATTAAGCAAGAGGCAATTAGAGCGACCTGAATCCGCGGAGTCACCTAGTGCAG	6850 fluorescence intensity (a.u.)
CTGTTAAATGGATAGCACTAGAATGATATATATATACTTCCGGAGTCACCTAGTGCAG	4400 fluorescence intensity (a.u.)
AATTGATGATTTACAGGCTAAAGATGTATGGGATATTGTTCGGAGTCACCTAGTGCAG	23000 fluorescence intensity (a.u.)
ACCTGATGATAGCTCAACCACGCCTGAATCCACAATCCATCGGAGTCACCTAGTGCAG	4380 fluorescence intensity (a.u.)
TCCGGGCTGGGTGGGTGGGGTGGGGATGGAGCTTGCCTGGCGGAGTCACCTAGTGCAG	8780 fluorescence intensity (a.u.)
ATCATTGATGGCGACCCAAAACAGGGGTAATTTGGAAAGTCGGAGTCACCTAGTGCAG	3380 fluorescence intensity (a.u.)
CGGTCAATCAGGACCCGGGCGACCAAAATATCCCGCTGTCCGGAGTCACCTAGTGCAG	12400 fluorescence intensity (a.u.)
GGATTAATTATACTTAATAAATTCGTCTCGCAGTTTACAGCGGAGTCACCTAGTGCAG	31100 fluorescence intensity (a.u.)
ATAATTTATAGGTAATTTTATATGTGATGTTATTAGTGACCGGAGTCACCTAGTGCAG	30100 fluorescence intensity (a.u.)
CCTCAATTATTAGTAAGATCGATTATTAGTCCCAGTTAGTCGGAGTCACCTAGTGCAG	12700 fluorescence intensity (a.u.)
ATTTATGATTTTAAAAGCCAATGTTAAAAGTAGACCACTACGGAGTCACCTAGTGCAG	3750 fluorescence intensity (a.u.)
ATTAAACCAATAATTTAAAGATCCATAACGCTAATATTTGCGGAGTCACCTAGTGCAG	8090 fluorescence intensity (a.u.)

Sequence	binding signal
CTCTAATTATAATACCATTATTTGGCACCGAACTTTATCACGGAGTCACCTAGTGCAG	17400 fluorescence intensity (a.u.)
TGTCAGTTTTAGTCTAATTGATAATTTACTTCCAACAATCCGGAGTCACCTAGTGCAG	25500 fluorescence intensity (a.u.)
ATCCAATTAGACCTTTGAGAGGTGTTTATCTCCTTTTCAACGGAGTCACCTAGTGCAG	3740 fluorescence intensity (a.u.)
AATGTTTGATGTGACAAAATTTCTAGGGTGGGATCTAAACCGGAGTCACCTAGTGCAG	3860 fluorescence intensity (a.u.)
ACAAATTTCTTATATGATTCCTTCTATATTACCAAAAGTGCGGAGTCACCTAGTGCAG	4700 fluorescence intensity (a.u.)
TCCTCGCAATCATTCCTCCCAAATCTGAAATCTTGCAAGGCGGAGTCACCTAGTGCAG	3180 fluorescence intensity (a.u.)
ATAAAATTTGTTAAGGACTACTAGTCTTTGTGTATACTTGCGGAGTCACCTAGTGCAG	3180 fluorescence intensity (a.u.)
ACTCAAAATCTGTTTATAGTTGATTTATAGTCTGCTAATCCGGAGTCACCTAGTGCAG	7910 fluorescence intensity (a.u.)
CTCATCCCTCCTGCTAGATATTACTGTTGCTGGCCCCAACCGGAGTCACCTAGTGCAG	4430 fluorescence intensity (a.u.)
TTTAAAATACTTAATAGTCAATTAATCATATGCTAATGGCCGGAGTCACCTAGTGCAG	16900 fluorescence intensity (a.u.)
TGTGACTGTGAAAGTCTATCCAATCCAGTAATCCACTCTACGGAGTCACCTAGTGCAG	6430 fluorescence intensity (a.u.)
CTTCCATTTCCTGTCATCTGATGCAAATATATTTGTTCTGCGGAGTCACCTAGTGCAG	3470 fluorescence intensity (a.u.)
ACCCGTAACCATAATTACCATTCCCGTGGGCGTGGACAGTCGGAGTCACCTAGTGCAG	12500 fluorescence intensity (a.u.)
AGCTACAGTGACGGGCAACAAATTGGCTGGATATCCTGTTCGGAGTCACCTAGTGCAG	9250 fluorescence intensity (a.u.)
TTGCAGTTAACGGAATCAGATTAAAGAAGGAAACAAGTGCCGGAGTCACCTAGTGCAG	8900 fluorescence intensity (a.u.)
AGTCAATTATGACAATTGCTTAGAAATGCTATTCTAGGATCGGAGTCACCTAGTGCAG	31500 fluorescence intensity (a.u.)
AATCTTATTTTAATTAAATCAAATCTTGTCTTAAACTACTCGGAGTCACCTAGTGCAG	9010 fluorescence intensity (a.u.)
ATTCTGTGATCTAAACATGATTTATGTGTTGATCTCAATTCGGAGTCACCTAGTGCAG	5410 fluorescence intensity (a.u.)
CCTATATAAATTATCCGAGTACTAATACGTCGAATATGGTCGGAGTCACCTAGTGCAG	3870 fluorescence intensity (a.u.)
TACTTGATTGGGTTTATTAGCGGATCGAGACTGTGGTACGCGGAGTCACCTAGTGCAG	48200 fluorescence intensity (a.u.)
GTACAATCATGCTAAATGTCAATCTTTTGAAAACTGAATCCGGAGTCACCTAGTGCAG	3920 fluorescence intensity (a.u.)
TAAAATTGTAATTATTTTGGGACGGAGGTAGTACTAATTGCGGAGTCACCTAGTGCAG	31500 fluorescence intensity (a.u.)
AGGCCCTAGACATCAATTAATTAAAACTTTCAAGGCCCTACGGAGTCACCTAGTGCAG	7010 fluorescence intensity (a.u.)
AAAGTACTATTTAAATTGACTACTGGTTGGTAGGACAAGTCGGAGTCACCTAGTGCAG	13300 fluorescence intensity (a.u.)
TCTGCTAATTTTAGTTCGGATTTCTAGAATTCGACTTTTACGGAGTCACCTAGTGCAG	4250 fluorescence intensity (a.u.)
TAGATAGATAGAATTGAATGGTGACCTCAGCTCCAGCTTCCGGAGTCACCTAGTGCAG	16200 fluorescence intensity (a.u.)
CCACTAATTCACAGATTTCAGGGCAACAGCGCGCCCGCACCGGAGTCACCTAGTGCAG	3720 fluorescence intensity (a.u.)
